Out of some 220,000 compounds screened, about 16,000 (7.3%) were called active. The shares of active, inactive and inconclusive entries below differ from those in the screen. Calls come from the whole dose curve; as a rule, active = well fitted inhibition curve with a large enough effect (not every such curve was filed as active); inconclusive = small, poorly fitted or top-dose-only effect, or another doubt; inactive = no such curve, though single readings can be large or run the other way. Where the call is inconclusive, the potency comes from a doubtful curve fit.
Molecular target: Aldehyde dehydrogenase 1A1 (Homo sapiens) (UniProt P00352)
UniProt P00352, sequence (P00352 whole entry, looked up): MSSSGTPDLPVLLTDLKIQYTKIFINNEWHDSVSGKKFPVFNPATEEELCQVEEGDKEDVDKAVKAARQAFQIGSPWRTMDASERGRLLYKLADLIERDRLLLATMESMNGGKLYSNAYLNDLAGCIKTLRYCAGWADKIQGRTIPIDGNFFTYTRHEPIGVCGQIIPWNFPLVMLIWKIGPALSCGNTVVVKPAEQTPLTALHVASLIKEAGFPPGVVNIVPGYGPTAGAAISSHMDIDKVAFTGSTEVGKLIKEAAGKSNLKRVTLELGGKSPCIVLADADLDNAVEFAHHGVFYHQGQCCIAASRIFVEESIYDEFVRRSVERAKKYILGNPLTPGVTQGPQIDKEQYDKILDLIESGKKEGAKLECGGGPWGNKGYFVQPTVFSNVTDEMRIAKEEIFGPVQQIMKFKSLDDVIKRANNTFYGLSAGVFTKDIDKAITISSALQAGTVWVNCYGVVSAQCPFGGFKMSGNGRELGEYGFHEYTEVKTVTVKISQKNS
Test: qHTS Assay for Inhibitors of Aldehyde Dehydrogenase 1 (ALDH1A1);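 for activity, negative = inhibition: plate controls were no enzyme wells and a reference inhibitor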
Conditions: Purified ALDH1A1, NADH fluorescence, propionaldehyde substrate; series mostly up to 75.3 µM; activity, negative = inhibition: at the top concentration
Potency is the fitted concentration of half-maximal effect; tags give direction and shape of the fitted curve.

Potency, active:
CCOC(=O)C1=C(N)OC(CCl)=C(C#N)C1c1ccsc1 (stereo unspecified) 7.94 µM
C=CCSSSCC=C 12.6 µM
CC(/C=N/NC(=S)Nc1cccc(S(=O)(=O)N(C)C)c1)c1ccccc1 (stereo unspecified) 7.94 µM
COc1ccc(N2C(=O)CC(Nc3ccc(F)cc3)C2=O)c([N+](=O)[O-])c1 (stereo unspecified) 17.8 µM
O=[N+]([O-])c1ccc(N=Cc2ccc(Br)c([N+](=O)[O-])c2)cc1 7.94 µM
O=[N+]([O-])c1ccc(Nc2nc(NC3CCCCC3)nc(N3CCCC3)n2)cc1 12.6 µM
CCOC(=O)c1c(C)[nH]c(C)c1C(=O)CSc1nc2ccccc2c(=O)n1-c1ccccc1C 20 µM
O=C(CC1(c2ccc(Cl)cc2)C2CC3CC(C2)CC1C3)NCCO (stereo unspecified) 12.6 µM
Cc1ccc(S(=O)(=O)N(C)Cc2ccc(C(=O)NN=C(CC(C)C)CC(C)C)cc2)cc1 7.08 µM

Potency, inconclusive:
CSc1ccc(S(=O)(=O)NC2CCCCC2)cc1 12.6 µM [inhibitor, partial curve]
C[C@@H]1NC(=O)c2cc([N+](=O)[O-])cc(I)c2NCCCC[C@@H](C(N)=O)NC(=O)[C@H](CC(N)=O)NC1=O 39.8 µM [inhibitor, single point]
CCOC(=O)C1CCCN(CCC(=O)Nc2ccc3c(c2)CCC3)C1 (stereo unspecified) 39.8 µM [inhibitor, single point]
CCN(CC)CCOC(=O)c1ccc(NC(=O)COc2cc(=O)n(CC)c3ccccc23)cc1 11.2 µM [inhibitor, partial curve]
N[C@@H](C(=O)O)c1ccc(C(=O)O)c(O)c1 14.1 µM [inhibitor, partial curve]
COc1ccc(C(=O)Nc2nc3ccc(S(C)(=O)=O)cc3s2)cc1OC 39.8 µM [inhibitor, single point]
COc1ccc(NC(=O)c2ccccc2NC(=O)C2CCCO2)cc1 (stereo unspecified) 39.8 µM [inhibitor, single point]
O=C1c2cccc3c([N+](=O)[O-])ccc(c23)C(=O)N1CC1CCCO1 (stereo unspecified) 0.794 µM [inhibitor, full curve]
Cn1c(=O)c(=O)n(C)c2cc(S(=O)(=O)N3CCC(Cc4ccccc4)CC3)ccc21 39.8 µM [inhibitor, partial curve, poor fit]
CCOC(=O)c1[nH]c(C)c(/C(O)=C2\C(=O)C(=O)N(CCN(C)C)C2c2cccc(OC)c2OC)c1C (stereo unspecified) 44.7 µM [inhibitor, single point]
O=[N+]([O-])c1ccc2[nH]c3c(c2c1)CCCC3O (stereo unspecified) 44.7 µM [inhibitor, single point]
c1ccc2c(c1)ccc1nnc(-c3ccc4c(c3)OCO4)n12 39.8 µM [inhibitor, single point]
COc1ccccc1CNCc1cc(Br)ccc1OC 12.6 µM [inhibitor, partial curve, poor fit]
CCn1cc(C(=O)O)c(=O)c2cc(F)c(N3CCN(C(=S)NC(=O)c4ccc(F)c(F)c4)CC3)cc21 3.98 µM [inhibitor, single point]
Cc1nn(Cc2cccc(C(=O)NC34CC5CC(CC(C5)C3)C4)c2)c(C)c1Br 22.4 µM [inhibitor, partial curve]
Cc1ccc(-c2cn3c(n2)CCCC3)cc1 31.6 µM [inhibitor, single point]
CCOC(=O)c1cc2c(=O)n3ccccc3nc2n(CCOC)c1=NC(=O)c1ccncc1 31.6 µM [inhibitor, partial curve]
OC(CN1CCCCC1)CN(c1ccccc1)c1ccccc1 (stereo unspecified) 28.2 µM [inhibitor, single point]
O=C(Oc1ccccc1)n1c(=S)oc2ccccc21 35.5 µM [inhibitor, single point]
O=C(COC(=O)Cn1cnc2ccccc21)Nc1cccc2c1C(=O)c1ccccc1C2=O 28.2 µM [inhibitor, single point]
CN(C)c1oc(-c2ccc(OCc3ccccc3)cc2)nc1C#N 31.6 µM [inhibitor, partial curve]
N#Cc1nc(-c2cccs2)oc1NCCCN1CCOCC1 28.2 µM [inhibitor, partial curve]
Cc1nc(NCCO)c2nnn(Cc3ccccc3F)c2n1 39.8 µM [inhibitor, single point]
Cc1cc(C(F)(F)F)nc(SCC(=O)NC2=NC(=O)C(C)S2)n1 (stereo unspecified) 25.1 µM [inhibitor, single point]
CCCCC(=O)NC(=S)NNC(=O)c1ccc(Cl)cc1Cl 28.2 µM [inhibitor, single point]
CCOc1ccccc1NC(=O)COC(=O)/C=C/c1ccc(OC)c(OC)c1 35.5 µM [inhibitor, single point]

activity, negative = inhibition, inactive:
NC(=S)NNC(=O)Nc1cccc(Cl)c1 -1.75%
COc1ccc(CCNC(=O)CCNS(=O)(=O)c2cccc(Cl)c2)cc1OC -10.4%
O=C(Nc1cccc(Cl)c1)c1cc(S(=O)(=O)NCCc2ccc(Cl)cc2)ccc1F 6.02%
O=C(CN(C(=O)CNC(=O)c1ccco1)c1ccc2c(c1)OCCO2)NC1CCCC1 -3.51%
CN(C)NC(=O)C12CCC(C)(C(=O)O1)C2(C)C (stereo unspecified) 3.92%
O=C(O)[C@@H]1CN[C@@H](C(=O)O)C1 8.24%
Cc1cnc(NC(=O)c2cncc(Br)c2)s1 -6.68%
O=C1c2ccccc2C(=O)N1/N=C/c1ccc(Oc2ccc([N+](=O)[O-])cn2)cc1 1.37%
CCC1CCCCN1C(=O)COC(=O)c1n[nH]c2ccccc12 (stereo unspecified) -2.08%
COc1ccc(NC(=S)N(CCCN2CCOCC2)Cc2ccccn2)cc1 2.19%
COc1cccc(CC2(CO)CCCN(Cc3ccc(CN4CCCCC4)s3)C2)c1 (stereo unspecified) -0.295%

From PubChem BioAssay AID1030 (National Center for Advancing Translational Sciences (NCATS), 2008)
